# Experimental data as given in the supplement of paper PMC3334620.
# Whole data set: some 33,000 sequences, median “E-score (-0.5 to 0.5)” near -0.035, cut for the highest 2% near 0.35. The list shows a part of the results.
# Target: T1, Pdr3 (UniProt P33200)
# T1 sequence: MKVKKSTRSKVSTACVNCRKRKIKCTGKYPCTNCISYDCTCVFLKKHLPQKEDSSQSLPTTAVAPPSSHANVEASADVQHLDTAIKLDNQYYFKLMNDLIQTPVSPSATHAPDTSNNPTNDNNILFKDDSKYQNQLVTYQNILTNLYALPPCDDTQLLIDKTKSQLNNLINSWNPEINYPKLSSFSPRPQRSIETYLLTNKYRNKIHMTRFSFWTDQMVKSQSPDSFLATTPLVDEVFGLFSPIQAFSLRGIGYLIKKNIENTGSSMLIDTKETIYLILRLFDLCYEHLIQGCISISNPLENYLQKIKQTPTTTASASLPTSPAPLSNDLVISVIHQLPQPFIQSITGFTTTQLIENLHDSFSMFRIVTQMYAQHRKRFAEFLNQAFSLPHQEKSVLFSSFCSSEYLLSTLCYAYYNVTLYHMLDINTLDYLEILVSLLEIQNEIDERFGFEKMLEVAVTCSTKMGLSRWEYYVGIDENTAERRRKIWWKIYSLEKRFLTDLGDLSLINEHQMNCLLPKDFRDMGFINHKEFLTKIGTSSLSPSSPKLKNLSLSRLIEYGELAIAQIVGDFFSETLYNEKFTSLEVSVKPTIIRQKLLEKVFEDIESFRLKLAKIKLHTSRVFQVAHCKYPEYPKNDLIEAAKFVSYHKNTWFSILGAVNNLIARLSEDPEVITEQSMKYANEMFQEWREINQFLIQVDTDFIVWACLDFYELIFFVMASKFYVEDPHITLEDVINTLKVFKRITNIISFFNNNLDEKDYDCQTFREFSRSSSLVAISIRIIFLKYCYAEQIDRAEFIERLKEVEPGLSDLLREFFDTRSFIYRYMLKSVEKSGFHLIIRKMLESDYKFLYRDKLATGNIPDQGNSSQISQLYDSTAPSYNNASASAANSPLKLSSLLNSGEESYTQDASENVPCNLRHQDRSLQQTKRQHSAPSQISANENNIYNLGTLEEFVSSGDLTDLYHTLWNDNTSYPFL
# Assay: PBM E-score (8-mer binding enrichment) (E-score (-0.5 to 0.5)); higher = stronger / more preferred TF binding; most listed sequences are background and not binding sites
# Conditions: protein concentration: 200 nM; construct: GST-full length
# Summary of the method: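 Each ungapped eight-base word and its reverse complement, pooled, received an E-score from the Universal PBM Analysis Suite. Underlying scans, normalised with masliner, recorded fluorescent anti-GST bound to GST-tagged yeast transcription factors. These were applied at about 100-200 nM to universal all-10-mer Agilent arrays double-stranded by primer extension.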
row,Sequence,PBM E-score
1,GAGCGAGA,0.147
2,AAGCTCGT,-0.158
3,ACTGGAAA,-0.0455
4,GGCCTGAC,0.0978
5,ACATTAGG,-0.236
6,ACGCCTCT,-0.283
7,CGCCGATA,0.17
8,ACCGAAGC,-0.0758
9,ATCGCGCG,0.275
10,ACGAAGGC,-0.144
11,CGAGCCTC,-0.00318
12,CCGCAGGA,0.189
13,ACAGAAGT,-0.285
14,ATCGATCA,-0.0371
15,TCACCTGA,-0.145
16,GCCAGCCC,-0.12
17,CCATGGAC,0.107
18,CCGTAAAC,0.112
19,AGGCGACC,0.0795
20,GATCATCA,-0.185
21,ACGTGTTG,-0.123
22,CGTCCCAG,-0.126
23,GTAGGCCA,-0.118
24,AGATGCTC,0.0282

row,Sequence,PBM E-score
1,CAGTGGCG,0.0262
2,CTCGCAGC,0.0906
3,CGACATAA,0.00859
4,ACCGATGG,-0.0565
5,AGCTATAC,-0.169
6,GAAGTTGC,-0.205
7,CCCAACGA,-0.0918
8,ACCTTAGT,-0.174
9,GACGACTC,-0.0464
10,TAAGCAGA,-0.00543
11,CCAACGCA,-0.0458
12,AGTCGGCG,0.125
13,GAAGTTTA,0.0761
14,ACTCGTGC,-0.0451
15,GAGGGATC,-0.0055
16,ATGGCTCA,-0.247
17,AATGTCCT,-0.115
18,AGGTACTC,-0.133
19,ACCTGCGG,0.181
20,CGCATGCC,0.224
21,CACGATCA,-0.0924
22,AGCTGAAA,0.0997
23,AGGACTCA,-0.298
24,AACCTGAC,-0.164

row,Sequence,PBM E-score
1,AGACCTCA,-0.203
2,AACAGGAT,-0.138
3,GGGCCAAC,0.0579
4,CTTTGGCA,-0.198
5,AAAAGGAA,0.0494
6,GACTCTGC,-0.0756
7,GGAATGTA,0.339
8,CTACCTAA,-0.111
9,AGCTGGAC,-0.145
10,AAAACTAC,0.179
11,CATGGCTC,-0.0277
12,GGTCAAAA,-0.0928
13,CCCAGGGC,-0.142
14,CATGTGAA,-0.102
15,CCAATGTC,-0.165
16,ACCGGACC,0.297
17,GCTACTTA,-0.383
18,ACTAACGG,0.208
19,ATGGCGTA,-0.0752
20,GATAACAA,0.0187
21,GAAGACTA,-0.133
22,GATGGCCC,0.0774
23,ACCGACCT,0.00582
